{"source": "the supplement of paper PMC8728848", "binders": {"B1": {"name": "DEC205 (Homo sapiens), O60449 (protein)", "chain": "MRTGWATPRRPAGLLMLLFWFFDLAEPSGRAANDPFTIVHGNTGKCIKPVYGWIVADDCDETEDKLWKWVSQHRLFHLHSQKCLGLDITKSVNELRMFSCDSSAMLWWKCEHHSLYGAARYRLALKDGHGTAISNASDVWKKGGSEESLCDQPYHEIYTRDGNSYGRPCEFPFLIDGTWHHDCILDEDHSGPWCATTLNYEYDRKWGICLKPENGCEDNWEKNEQFGSCYQFNTQTALSWKEAYVSCQNQGADLLSINSAAELTYLKEKEGIAKIFWIGLNQLYSARGWEWSDHKPLNFLNWDPDRPSAPTIGGSSCARMDAESGLWQSFSCEAQLPYVCRKPLNNTVELTDVWTYSDTRCDAGWLPNNGFCYLLVNESNSWDKAHAKCKAFSSDLISIHSLADVEVVVTKLHNEDIKEEVWIGLKNINIPTLFQWSDGTEVTLTYWDENEPNVPYNKTPNCVSYLGELGQWKVQSCEEKLKYVCKRKGEKLNDASSDKMCPPDEGWKRHGETCYKIYEDEVPFGTNCNLTITSRFEQEYLNDLMKKYDKSLRKYFWTGLRDVDSCGEYNWATVGGRRRAVTFSNWNFLEPASPGGCVAMSTGKSVGKWEVKDCRSFKALSICKKMSGPLGPEEASPKPDDPCPEGWQSFPASLSCYKVFHAERIVRKRNWEEAERFCQALGAHLSSFSHVDEIKEFLHFLTDQFSGQHWLWIGLNKRSPDLQGSWQWSDRTPVSTIIMPNEFQQDYDIRDCAAVKVFHRPWRRGWHFYDDREFIYLRPFACDTKLEWVCQIPKGRTPKTPDWYNPDRAGIHGPPLIIEGSEYWFVADLHLNYEEAVLYCASNHSFLATITSFVGLKAIKNKIANISGDGQKWWIRISEWPIDDHFTYSRYPWHRFPVTFGEECLYMSAKTWLIDLGKPTDCSTKLPFICEKYNVSSLEKYSPDSAAKVQCSEQWIPFQNKCFLKIKPVSLTFSQASDTCHSYGGTLPSVLSQIEQDFITSLLPDMEATLWIGLRWTAYEKINKWTDNRELTYSNFHPLLVSGRLRIPENFFEEESRYHCALILNLQKSPFTGTWNFTSCSERHFVSLCQKYSEVKSRQTLQNASETVKYLNNLYKIIPKTLTWHSAKRECLKSNMQLVSITDPYQQAFLSVQALLHNSSLWIGLFSQDDELNFGWSDGKRLHFSRWAETNGQLEDCVVLDTDGFWKTVDCNDNQPGAICYYSGNETEKEVKPVDSVKCPSPVLNTPWIPFQNCCYNFIITKNRHMATTQDEVHTKCQKLNPKSHILSIRDEKENNFVLEQLLYFNYMASWVMLGITYRNNSLMWFDKTPLSYTHWRAGRPTIKNEKFLAGLSTDGFWDIQTFKVIEEAVYFHQHSILACKIEMVDYKEEHNTTLPQFMPYEDGIYSVIQKKVTWYEALNMCSQSGGHLASVHNQNGQLFLEDIVKRDGFPLWVGLSSHDGSESSFEWSDGSTFDYIPWKGQTSPGNCVLLDPKGTWKHEKCNSVKDGAICYKPTKSKKLSRLTYSSRCPAAKENGSRWIQYKGHCYKSDQALHSFSEAKKLCSKHDHSATIVSIKDEDENKFVSRLMRENNNITMRVWLGLSQHSVDQSWSWLDGSEVTFVKWENKSKSGVGRCSMLIASNETWKKVECEHGFGRVVCKVPLGPDYTAIAIIVATLSILVLMGGLIWFLFQRHRLHLAGFSSVRYAQGVNEDEIMLPSFHD"}}, "assay_in_all_cases": "glycan array binding signal (z-score within array); higher = stronger binding", "conditions_in_all_cases": "glycan notation: IUPAC condensed, linker removed", "key": {"Fuc(a1-2)Gal": {"target": "Fuc(a1-2)Gal", "in_short": "(§1)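 From the Consortium for Functional Glycomics database, 3228 arrays were curated, keeping only those whose protein sequence was available. Binding is given as a within-array Z-score averaged across arrays sharing a protein sequence and across linkers. Negative Z-scores can be read as non-binding.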"}, "Fuc(a1-2)Gal(b1-3)GalNAc": {"target": "Fuc(a1-2)Gal(b1-3)GalNAc", "in_short": "as §1"}, "[1]": {"target": "Fuc(a1-2)Gal(b1-3)GalNAc(b1-3)Gal", "in_short": "as §1"}, "[2]": {"target": "Fuc(a1-2)Gal(b1-3)GalNAc(b1-3)Gal(a1-4)Gal(b1-4)Glc", "in_short": "as §1"}, "[3]": {"target": "Fuc(a1-2)Gal(b1-3)GalNAc(b1-4)[Neu5Ac(a2-3)]Gal(b1-4)Glc", "in_short": "as §1"}, "Fuc(a1-2)Gal(b1-3)GlcNAc": {"target": "Fuc(a1-2)Gal(b1-3)GlcNAc", "in_short": "as §1"}, "[4]": {"target": "Fuc(a1-2)Gal(b1-3)GlcNAc(b1-3)Gal(b1-4)Glc", "in_short": "as §1"}, "[5]": {"target": "Fuc(a1-2)Gal(b1-3)[Fuc(a1-4)]GlcNAc", "in_short": "as §1"}, "Fuc(a1-2)Gal(b1-4)Glc": {"target": "Fuc(a1-2)Gal(b1-4)Glc", "in_short": "as §1"}, "Fuc(a1-2)Gal(b1-4)GlcNAc": {"target": "Fuc(a1-2)Gal(b1-4)GlcNAc", "in_short": "as §1"}, "[6]": {"target": "Fuc(a1-2)Gal(b1-4)GlcNAc(b1-3)Gal(b1-4)GlcNAc", "in_short": "as §1"}, "[7]": {"target": "Fuc(a1-2)Gal(b1-4)GlcNAc(b1-3)Gal(b1-4)GlcNAc(b1-3)Gal(b1-4)GlcNAc", "in_short": "as §1"}, "[8]": {"target": "Fuc(a1-2)Gal(b1-4)[Fuc(a1-3)]GlcNAc", "in_short": "as §1"}, "[9]": {"target": "Fuc(a1-2)Gal(b1-4)[Fuc(a1-3)]GlcNAc(b1-3)Gal(b1-4)[Fuc(a1-3)]GlcNAc", "in_short": "as §1"}, "[10]": {"target": "Fuc(a1-2)Gal(b1-4)[Fuc(a1-3)]GlcNAc(b1-3)Gal(b1-4)[Fuc(a1-3)]GlcNAc(b1-3)Gal(b1-4)[Fuc(a1-3)]GlcNAc", "in_short": "as §1"}, "Fuc(a1-2)GlcNAc": {"target": "Fuc(a1-2)GlcNAc", "in_short": "as §1"}, "Fuc(a1-2)[Gal(a1-3)]Gal": {"target": "Fuc(a1-2)[Gal(a1-3)]Gal", "in_short": "as §1"}, "[11]": {"target": "Fuc(a1-2)[Gal(a1-3)]Gal(b1-3)GlcNAc", "in_short": "as §1"}, "[12]": {"target": "Fuc(a1-2)[Gal(a1-3)]Gal(b1-4)Glc", "in_short": "as §1"}, "[13]": {"target": "Fuc(a1-2)[Gal(a1-3)]Gal(b1-4)GlcNAc", "in_short": "as §1"}, "[14]": {"target": "Fuc(a1-2)[Gal(a1-3)]Gal(b1-4)[Fuc(a1-3)]GlcNAc", "in_short": "as §1"}, "[15]": {"target": "Fuc(a1-2)[Gal(a1-4)]Gal(b1-4)GlcNAc", "in_short": "as §1"}, "[16]": {"target": "Fuc(a1-2)[GalNAc(a1-3)]Gal", "in_short": "as §1"}, "[17]": {"target": "Fuc(a1-2)[GalNAc(a1-3)]Gal(b1-3)GlcNAc", "in_short": "as §1"}, "[18]": {"target": "Fuc(a1-2)[GalNAc(a1-3)]Gal(b1-4)Glc", "in_short": "as §1"}, "[19]": {"target": "Fuc(a1-2)[GalNAc(a1-3)]Gal(b1-4)GlcNAc", "in_short": "as §1"}, "[20]": {"target": "Fuc(a1-2)[GalNAc(a1-3)]Gal(b1-4)[Fuc(a1-3)]GlcNAc", "in_short": "as §1"}, "[21]": {"target": "Fuc(a1-2)[GalNAc(a1-4)]Gal(b1-4)GlcNAc", "in_short": "as §1"}, "[22]": {"target": "Fuc(a1-2)[GalNAc(b1-3)]Gal", "in_short": "as §1"}, "Fuc(a1-3)GlcNAc": {"target": "Fuc(a1-3)GlcNAc", "in_short": "as §1"}}, "note": "The other results are listed elsewhere or left out."}
{"binder": "B1", "values": [{"measurement": "glycan array binding signal (z-score)", "setting": "Fuc(a1-2)Gal", "result": 0.066}, {"measurement": "glycan array binding signal (z-score)", "setting": "Fuc(a1-2)Gal(b1-3)GalNAc", "result": -0.184}, {"measurement": "glycan array binding signal (z-score)", "setting": "[1]", "result": -0.204}, {"measurement": "glycan array binding signal (z-score)", "setting": "[2]", "result": -0.222}, {"measurement": "glycan array binding signal (z-score)", "setting": "[3]", "result": -0.153}, {"measurement": "glycan array binding signal (z-score)", "setting": "Fuc(a1-2)Gal(b1-3)GlcNAc", "result": -0.267}, {"measurement": "glycan array binding signal (z-score)", "setting": "[4]", "result": 0.287}, {"measurement": "glycan array binding signal (z-score)", "setting": "[5]", "result": -0.294}, {"measurement": "glycan array binding signal (z-score)", "setting": "Fuc(a1-2)Gal(b1-4)Glc", "result": 0.017}, {"measurement": "glycan array binding signal (z-score)", "setting": "Fuc(a1-2)Gal(b1-4)GlcNAc", "result": 0.063}, {"measurement": "glycan array binding signal (z-score)", "setting": "[6]", "result": -0.152}, {"measurement": "glycan array binding signal (z-score)", "setting": "[7]", "result": 0.127}, {"measurement": "glycan array binding signal (z-score)", "setting": "[8]", "result": -0.133}, {"measurement": "glycan array binding signal (z-score)", "setting": "[9]", "result": -0.263}, {"measurement": "glycan array binding signal (z-score)", "setting": "[10]", "result": 1.97}, {"measurement": "glycan array binding signal (z-score)", "setting": "Fuc(a1-2)GlcNAc", "result": -0.186}, {"measurement": "glycan array binding signal (z-score)", "setting": "Fuc(a1-2)[Gal(a1-3)]Gal", "result": -0.222}, {"measurement": "glycan array binding signal (z-score)", "setting": "[11]", "result": -0.161}, {"measurement": "glycan array binding signal (z-score)", "setting": "[12]", "result": -0.208}, {"measurement": "glycan array binding signal (z-score)", "setting": "[13]", "result": -0.128}, {"measurement": "glycan array binding signal (z-score)", "setting": "[14]", "result": -0.114}, {"measurement": "glycan array binding signal (z-score)", "setting": "[15]", "result": -0.146}, {"measurement": "glycan array binding signal (z-score)", "setting": "[16]", "result": -0.09}, {"measurement": "glycan array binding signal (z-score)", "setting": "[17]", "result": -0.271}, {"measurement": "glycan array binding signal (z-score)", "setting": "[18]", "result": -0.153}, {"measurement": "glycan array binding signal (z-score)", "setting": "[19]", "result": -0.028}, {"measurement": "glycan array binding signal (z-score)", "setting": "[20]", "result": -0.211}, {"measurement": "glycan array binding signal (z-score)", "setting": "[21]", "result": -0.122}, {"measurement": "glycan array binding signal (z-score)", "setting": "[22]", "result": -0.128}, {"measurement": "glycan array binding signal (z-score)", "setting": "Fuc(a1-3)GlcNAc", "result": -0.24}]}
